From the supplement of paper PMC12217912
This is one part of the list. Sequences were assembled here from the parent chain. Values near 0.05 are background.

B1: TEV protease; numbered along this chain (parent)
chain: MGESLFKGPRDYNPISSSICHLTNESDGHTTSLYGIGFGPFIITNKHLFRRNNGTLVVQSLHGVFKVKDTTTLQQHLVDGRDMIIIRMPKDFPPFPQKLKFREPQREERICLVTTNFQTKSMSSMVSDTSCTFPSGDGIFWKHWIQTKDGQCGSPLVSTRDGFIVGIHSASNFTNTNNYFTSVPKNFMELLTNQEAQQWVSGWRLNADSVLWGGHKVFMVKPEEPFQPVKEATQL

Variants of: B1
Test: raw area under fraction-flipped curve 0-4 h after induction (AUC4h, not background-subtracted), DNA-recorder readout of cleavage of the substrate (dimensionless); higher = more cleavage of the substrate by the protease variant
Settings: temperature: 34 °C; time window: 0-4 h after rhamnose induction
Procedure: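 In vivo DNA recorder in E. coli TOP10(DE3) ΔrhaA at 34 °C. Each TEVp single-site mutant (parent TEVp 0) is paired with a single-site variant of the 7-mer TEVs (canonical ENLYFQ|S). The substrate sits between flexible linkers in a Bxb1-sfGFP-TEVs-SsrA fusion, so cleavage stabilises Bxb1 and speeds flipping of a recombination array, read by NGS. The value is the raw area under the fraction-flipped curve over 0-4 h after rhamnose induction (AUC4h), with ≥20 reads per time point. It is not background-subtracted; inactive controls average about 0.047.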
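Also: Bxb1 expression induced with 0.2% (w/v) L-rhamnose at OD600 near 0.5, cultures sampled hourly, flipped fraction per protease–substrate barcode pair counted by paired-end Illumina sequencing.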

Row | Variant | area with substrate CNLYFQS | area with substrate FNLYFQS | area with substrate GNLYFQS | area with substrate HNLYFQS | area with substrate KNLYFQS | area with substrate LNLYFQS | area with substrate MNLYFQS | area with substrate PNLYFQS | area with substrate SNLYFQS | area with substrate TNLYFQS | area with substrate VNLYFQS | area with substrate WNLYFQS | area with substrate YNLYFQS | area with substrate INLYFQS | area with substrate QNLYFQS | area with substrate NNLYFQS | area with substrate RNLYFQS | area with substrate DNLYFQS
1 | I36C | 0.0715 | 0.0513 | 0.0631 | 0.066 | 0.0715 | 0.0571 | 0.0674 | 0.0665 | 0.056 | 0.051 | 0.0453 | 0.0523 | 0.0626 | – | – | – | – | –
2 | G39K | 0.0411 | – | 0.0424 | 0.0451 | 0.0436 | 0.0486 | 0.0414 | 0.0367 | 0.053 | 0.0523 | 0.0465 | 0.0393 | – | 0.0411 | 0.0466 | – | – | –
3 | G39D | 0.0228 | – | 0.0107 | 0.05 | 0.0469 | 0.0332 | 0.0582 | 0.0487 | 0.0532 | 0.0474 | 0.047 | 0.0408 | 0.0432 | 0.0418 | 0.0495 | 0.0372 | – | –
4 | G39V | 0.0358 | 0.0486 | 0.0312 | 0.0438 | 0.0336 | 0.0443 | 0.0421 | 0.0453 | 0.0401 | 0.0425 | 0.0386 | 0.0401 | 0.0396 | 0.0413 | – | 0.0332 | 0.0476 | –
5 | G39S | 0.0544 | – | 0.0503 | 0.0383 | 0.0598 | 0.0407 | 0.0414 | 0.0501 | 0.0444 | 0.05 | – | 0.0324 | 0.0419 | 0.026 | – | 0.0446 | 0.0498 | –
6 | Y34C | 0.0536 | – | 0.0668 | 0.0654 | – | 0.0861 | – | 0.0664 | 0.0834 | 0.0618 | 0.0642 | 0.0618 | 0.0574 | 0.0562 | – | – | 0.0744 | –
7 | G35L | 0.046 | 0.0666 | 0.0501 | – | – | – | – | – | – | – | – | – | – | 0.0406 | – | – | – | 0.041
8 | G35M | 0.0354 | – | – | – | 0.0532 | – | – | – | – | – | – | – | – | – | – | – | – | 0.0488
9 | L22A | 0.0415 | 0.0552 | 0.0609 | 0.0606 | 0.0444 | – | 0.0629 | 0.057 | 0.0468 | 0.0559 | 0.0427 | 0.0521 | – | 0.0405 | 0.0625 | – | – | –
10 | S18P | 0.0088 | – | 0.054 | 0.0439 | 0.044 | 0.0587 | 0.0517 | 0.0539 | 0.0411 | – | 0.0519 | 0.0472 | – | 0.0422 | – | 0.0802 | – | –
11 | S18F | 0.058 | – | 0.0745 | 0.0614 | 0.0627 | 0.071 | – | 0.0631 | 0.0641 | 0.0634 | – | 0.0545 | 0.0539 | 0.0592 | – | 0.0613 | 0.0598 | –
12 | S18Y | 0.0672 | – | – | 0.067 | 0.0772 | 0.0552 | – | 0.0574 | 0.0658 | 0.0669 | – | 0.0567 | 0.0633 | – | 0.0598 | – | – | –
13 | S18V | 0.0765 | 0.112 | – | 0.0544 | 0.0737 | – | – | 0.0769 | 0.0672 | 0.0687 | 0.0647 | 0.0576 | – | 0.0603 | – | 0.0619 | 0.0533 | –
14 | E25A | 0.0572 | 0.0779 | 0.0536 | 0.0735 | 0.0699 | 0.0783 | 0.0782 | 0.0737 | 0.0716 | 0.064 | 0.0694 | 0.062 | 0.0623 | 0.0726 | 0.0339 | – | – | –
